The labels stand for the following.
T1: RBFOX1 RRM RbFoxmut (Fox-RRM*) (Homo sapiens, UniProt Q9NWB1 109-208, R118D;E147R;N151S;E152T)
T1 sequence: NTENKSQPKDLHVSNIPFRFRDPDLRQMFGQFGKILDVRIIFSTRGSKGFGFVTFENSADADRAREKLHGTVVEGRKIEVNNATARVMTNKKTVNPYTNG

B1: UCUAAAA (DNA:RNA)
RNA: GGGAGACCGGAAUUCAGAUUGUCCUCUAAAAUUAAAUCCCGUCGUAGCCACCA
DNA 1: CAATCTGAATTCCGGTCTCCC
DNA 2: TGGTGGCTACGACGGGATT
B2: GGUCCUC (DNA:RNA)
RNA: B1 RNA with U25G, C26G, A28C, A29C, A30U, A31C
DNA 1: CAATCTGAATTCCGGTCTCCC
DNA 2: TGGTGGCTACGACGGGATT
B3: GUACUCC (DNA:RNA)
RNA: GGGAGACCGGAAUUCAGAUUGUCCGUACUCCUUAAAUCCCGUCGUAGCCACCA
DNA 1: CAATCTGAATTCCGGTCTCCC
DNA 2: TGGTGGCTACGACGGGATT
B4: GGUACCC (DNA:RNA)
RNA: B3 RNA with U26G, A27U, C28A, U29C
DNA 1: CAATCTGAATTCCGGTCTCCC
DNA 2: TGGTGGCTACGACGGGATT
B5: UUUGGCU (DNA:RNA)
RNA: B3 RNA with G25U, A27U, C28G, U29G, C31U
DNA 1: CAATCTGAATTCCGGTCTCCC
DNA 2: TGGTGGCTACGACGGGATT
B6: CGUUGCG (DNA:RNA)
RNA: B3 RNA with G25C, U26G, A27U, C28U, U29G, C31G
DNA 1: CAATCTGAATTCCGGTCTCCC
DNA 2: TGGTGGCTACGACGGGATT
B7: CUUUCGC (DNA:RNA)
RNA: B3 RNA with G25C, A27U, C28U, U29C, C30G
DNA 1: CAATCTGAATTCCGGTCTCCC
DNA 2: TGGTGGCTACGACGGGATT
B8: UAGAUGC (DNA:RNA)
RNA: B3 RNA with G25U, U26A, A27G, C28A, C30G
DNA 1: CAATCTGAATTCCGGTCTCCC
DNA 2: TGGTGGCTACGACGGGATT
B9: GCAAGGG (DNA:RNA)
RNA: B3 RNA with U26C, C28A, U29G, C30G, C31G
DNA 1: CAATCTGAATTCCGGTCTCCC
DNA 2: TGGTGGCTACGACGGGATT
B10: CAUGAUU (DNA:RNA)
RNA: B1 RNA with U25C, C26A, A28G, A30U, A31U
DNA 1: CAATCTGAATTCCGGTCTCCC
DNA 2: TGGTGGCTACGACGGGATT
B11: UGCAUCC (DNA:RNA)
RNA: B3 RNA with G25U, U26G, A27C, C28A
DNA 1: CAATCTGAATTCCGGTCTCCC
DNA 2: TGGTGGCTACGACGGGATT
B12: GUCCGUU (DNA:RNA)
RNA: B3 RNA with A27C, U29G, C30U, C31U
DNA 1: CAATCTGAATTCCGGTCTCCC
DNA 2: TGGTGGCTACGACGGGATT
B13: GUGUCGC (DNA:RNA)
RNA: B3 RNA with A27G, C28U, U29C, C30G
DNA 1: CAATCTGAATTCCGGTCTCCC
DNA 2: TGGTGGCTACGACGGGATT
B14: UACGAUC (DNA:RNA)
RNA: B1 RNA with C26A, U27C, A28G, A30U, A31C
DNA 1: CAATCTGAATTCCGGTCTCCC
DNA 2: TGGTGGCTACGACGGGATT
B15: CACUUAA (DNA:RNA)
RNA: B1 RNA with U25C, C26A, U27C, A28U, A29U
DNA 1: CAATCTGAATTCCGGTCTCCC
DNA 2: TGGTGGCTACGACGGGATT
B16: CGUAGAC (DNA:RNA)
RNA: B1 RNA with U25C, C26G, A29G, A31C
DNA 1: CAATCTGAATTCCGGTCTCCC
DNA 2: TGGTGGCTACGACGGGATT
B17: CGUUCGA (DNA:RNA)
RNA: B1 RNA with U25C, C26G, A28U, A29C, A30G
DNA 1: CAATCTGAATTCCGGTCTCCC
DNA 2: TGGTGGCTACGACGGGATT
B18: AUUAUGG (DNA:RNA)
RNA: B3 RNA with G25A, A27U, C28A, C30G, C31G
DNA 1: CAATCTGAATTCCGGTCTCCC
DNA 2: TGGTGGCTACGACGGGATT
B19: GUCUACU (DNA:RNA)
RNA: B3 RNA with A27C, C28U, U29A, C31U
DNA 1: CAATCTGAATTCCGGTCTCCC
DNA 2: TGGTGGCTACGACGGGATT
B20: GGCGUGU (DNA:RNA)
RNA: B3 RNA with U26G, A27C, C28G, C30G, C31U
DNA 1: CAATCTGAATTCCGGTCTCCC
DNA 2: TGGTGGCTACGACGGGATT

Changes are numbered by the printed parent chain; changes in the protein carry UniProt numbers. This is one part of the list.

This test concerns the target T1, RBFOX1 RRM RbFoxmut (Fox-RRM*). Kind of test: EMSA; HiTS-Eq, 1 nM pool, 10 min; buffer printed only for the single-RNA assays: 10 mM Tris pH 7.5, 150 mM NaCl, 3.4 mM EDTA, 0.001% NP-40, 30 C. As to conditions: tags: His6 N-terminal (pET28a); label: 5' 32P. The essentials: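 Purified RbFox RRM, wild type or mutant, was incubated for 10 min in 50 µL with 1 nM of a 5′-radiolabelled RNA pool carrying 7 randomized nucleotides, whose flanks were annealed to DNA oligonucleotides, over a series of increasing protein concentrations. Unbound RNA was resolved on 8% native PAGE, cut out, reverse-transcribed, barcoded by PCR and sequenced on an Illumina HiSeq 2500. Relative association constants were derived from changes in read counts for each RNA species versus the control reaction and normalised to the cognate motif.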
(In general: In EMSA bound probe runs differently from free probe, usually more slowly.)
On to B1, for which the binding signal is 0.0829 KA relative to UGCAUGU. In the case of B2 it was 0.105 KA relative to UGCAUGU; in that of B3, 0.044 KA relative to UGCAUGU; in that of B4, 0.0795 KA relative to UGCAUGU.

As to B5, the binding signal was 0.128 KA relative to UGCAUGU. In the case of B6 it was 0.169 KA relative to UGCAUGU. In the case of B7, the binding signal is 0.0864 KA relative to UGCAUGU. For B8 the value was 0.087 KA relative to UGCAUGU. In the case of B9 it was 0.0544 KA relative to UGCAUGU; in that of B10, 0.108 KA relative to UGCAUGU; in that of B11, 0.421 KA relative to UGCAUGU. In the case of B12, the binding signal is 0.122 KA relative to UGCAUGU. For B13 the value was 0.118 KA relative to UGCAUGU. Regarding B14, the binding signal was 0.0637 KA relative to UGCAUGU. As for B15, the binding signal is 0.123 KA relative to UGCAUGU.

As to B16, the binding signal is 0.106 KA relative to UGCAUGU.

As for B17, the binding signal was 0.093 KA relative to UGCAUGU. For B18 the value was 0.0767 KA relative to UGCAUGU; for B19, 0.0784 KA relative to UGCAUGU; for B20, 0.208 KA relative to UGCAUGU.

Values taken from paper PMC9911399, “Two distinct binding modes provide the RNA-binding protein RbFox with extraordinary sequence specificity”.
